Laboratory results taken from publication PMC12040169 (PLOS Biology, 2025).
Some of the results follow.

tested on: T1, C. trachomatis L2/434/Bu expressing GFP (CTL2-GFP); design: species or system HeLa; C. trachomatis total inclusion area by high-content imaging, normalised to DMSO; conditions: total inclusion area; 28.5 h, 10 µM; inhibitor
T1 construct: L2/434/Bu GFP intracellular growth in HeLa cells
Procedure, shortened: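 Bulk GFP and resorufin signals were read first. Wells were then fixed, stained with Hoechst and imaged to detect GFP inclusions and host nuclei. MICs followed the previously described calculation.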

Row | Structure (SMILES) | % of control remaining
1 | CC1(CNC(=O)c2cc(-c3cccc(F)c3)no2)COC1 [CBK281751] | 114.11
2 | O=C(N/N=C/c1cccc(Oc2ccccc2)c1)c1ccncc1 [CBK261955] | 137.183
3 | O=C(Nc1ncccc1Cl)c1ccc(F)cc1 [CBK288215] | 95.6341
4 | N#CCCN(C(=O)NCCN1CCOCC1)C1CCCCC1 [CBK156357] | 104.448
5 | CC(C)(C)OC(=O)N1CCCC1C1COc2ccccc2C1=O (stereo not drawn) [CBK281579] | 97.2093
6 | O=C(Cn1nc(-c2cc3c(s2)CCC3)oc1=O)NC1CC1 [CBK283800] | 70.1156
7 | CNS(=O)(=O)c1ccc(NC(=O)c2cc(-c3ccc4c(c3)OCO4)nc3ccccc23)cc1 [CBK267735] | 110.918
8 | COCCOCCCC(=O)OCC1Cc2cc(F)ccc2O1 (stereo not drawn) [CBK304886] | 104.038
9 | N#Cc1[nH]nnc1-c1ccc(OC(F)(F)F)cc1 [CBK017386] | 99.4297
10 | Oc1cccc(Sc2cc(C(F)(F)F)ccn2)c1 [CBK115273] | 92.5173
11 | Cc1ccc2c(c1)CN(C(=O)C1CC1C)CC1(CCN(C)CC1)O2 (stereo not drawn) [CBK284833] | 116.191
12 | O=C(/C=C/c1ccccc1[N+](=O)[O-])NCCN1CCOCC1 [CBK265596] | 122.166
13 | COc1ccc(CCNc2ncnc3sc4c(c23)CCCCC4)cc1OC [CBK074384] | 87.5902
14 | CCn1nc(C)c(C2NC(=O)c3ccccc3N2)c1C (stereo not drawn) [CBK288214] | 62.1681
15 | COc1ccc(C(NC(=O)COc2c(Cl)cc(C(=O)O)cc2Cl)C(C)C)cc1 (stereo not drawn) [CBK295344] | 86.1372
16 | Cn1nc(C(C)(C)C)c2cc(C(=O)N3CCCc4occc4C3)cnc21 [CBK304713] | 58.7566
17 | CN1C(=O)c2ccccc2OCCCCC[C@H]2NCCC[C@H]21 [CBK292075] | 100.685
18 | Cc1ccc(NS(=O)(=O)c2cccc(C(=O)NS(=O)(=O)c3ccc(F)cc3F)c2)cc1 [CBK297776] | 97.7715
19 | O=C(C1CCCC1)N1CCc2nc(-c3ccccc3)[nH]c(=O)c2C1 [CBK282331] | 102.261
20 | O=C(CCN1CCOCC1)NNC(=O)Nc1cccc(C(F)(F)F)c1 [CBK269017] | 73.1267
21 | Cc1cc(-c2nccnc2NCc2cccc(Cl)c2)cc(C)c1O [CBK036646] | 126.043
22 | CC(C)Oc1ccccc1-c1nnc(SCC(=O)O)[nH]1 [CBK262702] | 92.7204
23 | Cc1cc(N2CCCC(C(=O)N3CCOCC3)C2)nc(N)n1 (stereo not drawn) [CBK305985] | 61.0625
24 | O=C(CN1C(=O)c2ccccc2C1=O)N1CCN(Cc2ccc3c(c2)OCO3)CC1 [CBK074846] | 79.553
25 | Cc1ccn(CCNC(=O)C2CCC(=O)N(CCc3ccccn3)C2)n1 (stereo not drawn) [CBK306998] | 54.64
26 | CN(CCN1CCCC1)c1nccc(N2CCN[C@H]3CS(=O)(=O)C[C@H]32)n1 [CBK306692] | 104.498

Row | Structure (SMILES) | % of control remaining
27 | COc1cccc(CCC(=O)n2ccn(-c3ccc(N(C)C)cc3)c2=O)c1 [CBK106609] | 105.661
28 | Cc1ccc(S(=O)(=O)N(CC(=O)O)c2ccc(C(C)C)cc2)cc1 [CBK287116] | 99.2241
29 | CC1(C#N)CCCN(C(=O)NC2CCN(Cc3cccc(O)c3)CC2)C1 (stereo not drawn) [CBK306787] | 106.377
30 | COc1ccc(CNC(=O)c2cc(O)nc3ccccc23)cc1OC [CBK296763] | 128.287
31 | CCOC(=O)C1(C2CCCCC2)CCN(C(=O)C2CCN(C)CC2)CC1 [CBK136948] | 84.6297
32 | Cc1cc(C)c2c(n1)OC(N1CCOCC1)(C(F)(F)F)CC2=O (stereo not drawn) [CBK267301] | 99.951
33 | Cc1nc2nc(N)nn2c(C)c1CCC(=O)NCc1ccccc1 [CBK304986] | 73.9041
34 | COc1cc(C(=O)N2CCN(C(=O)c3ccco3)CC2)cc(OC)c1OC [CBK144476] | 99.5718
35 | CC(=O)NS(=O)(=O)c1ccc(NC(=N)Nc2nc(C)cc(C)n2)cc1 [CBK263117C] | 91.4357
36 | CCOC(=O)C1(C2CCCCC2)CCN(C(=O)/C=C/c2ccc3c(c2)OCO3)CC1 [CBK136924] | 72.497
37 | Oc1ccc(/C=N/c2ccc(O)c(-c3nc4ccccc4s3)c2)cc1O [CBK262473] | 103.253
38 | Cc1nc2ccc(C(=O)N3CCN(C4CCCCC4)C(=O)C3)cc2[nH]1 [CBK282131] | 94.3284
39 | CC1Cc2ccccc2N1C(=O)C1C2C=CC(O2)C1C(=O)O (stereo not drawn) [CBK286891] | 127.736
40 | O=C(CCn1c(C(F)F)cc2cccnc21)N1CCCCCC1 [CBK284983] | 108.922
41 | FC(F)(F)c1ccnc(OCCN2CCNCC2)n1 [CBK113297] | 121.581
42 | CN(C)Cc1ccccc1-n1ncc(CN2CCS(=O)(=O)CC2)n1 [CBK112877] | 72.6478
43 | Cc1nnnn1C(Cc1cccc(F)c1)C(=O)N1CC(C)CC(C)C1 (stereo not drawn) [CBK298262] | 87.2736
44 | COc1cc2nc(N3CCC4(CCN(C(=O)C(c5ccccc5)C(C)C)C4)C3)nc(N)c2cc1OC (stereo not drawn) [CBK160790] | 31.1607
45 | CCOc1ccc(-c2ccc(C#N)c(=S)[nH]2)cc1 [CBK288470] | 57.4475
46 | Cc1ccc(C2c3c(O)n[nH]c3CC(C)(O)C2C(=O)OCc2ccccc2)cc1 (stereo not drawn) [CBK269417] | 91.5713
47 | CCOC(=O)NC(Nc1cccc(C)n1)(C(F)(F)F)C(F)(F)F [CBK261343] | 104.536
48 | CN(CC1CCN(C(=O)OC(C)(C)C)CC1)c1ccnc(-c2ccncc2)n1 [CBK166064] | 95.4808
49 | COc1cccc(/C=C2/SC(=S)N(C)C2=O)c1OCCCOc1ccc(C)cc1C [CBK264446] | 95.5458
50 | N#Cc1cccnc1N1CCC(NC(=O)c2cccnc2)CC1 [CBK304283] | 98.7427
51 | CC(C)NC(=O)N[C@H]1CCN2C(=O)c3cc(-c4ccccc4F)ccc3NC(=O)[C@H]12 [CBK289335] | 103.314
